# Assay results as given in publication PMC10668032.
# Some of the results follow. At the low end of the ranking the order means little.
# Target: SIX1-Q177R homeodomain (UniProt Q15475)
# Experiment: universal protein binding microarray
# Settings: Universal all-10-mer PBM (8x60K, AMADID 030236), 300 nM GST-tagged protein, Alexa Fluor 488 anti-GST; buffer, salt, pH and temperature not stated; high values mean tight binding; most listed sequences are background and not binding sites; double strand, one strand shown
row,Sequence,binding signal
1,AAGGAGCG,-0.274 E-score
2,GTTAGCCA,-0.0617 E-score
3,ACTTCCTA,-0.0948 E-score
4,CAGGCAGA,-0.259 E-score
5,CCACCGAA,0.0837 E-score
6,GCGGGAGA,-0.0909 E-score
7,TACTCTGA,0.0251 E-score
8,AGCTGGTA,-0.082 E-score
9,CGCTGGCA,-0.105 E-score
10,ACTGGACG,-0.0353 E-score
11,AGTTTTTA,-0.295 E-score
12,CCTGGCAG,-0.0508 E-score
13,GATTTGGA,0.0324 E-score
14,CCTTACAA,-0.0516 E-score
15,GTATCTAA,0.14 E-score
16,ATCAGTTC,-0.0929 E-score
17,GCTCCACA,0.0813 E-score
18,CTAGGCAG,-0.163 E-score
19,GCATAGTA,0.136 E-score
20,GCGGGACA,0.107 E-score
21,CGTCATGC,-0.13 E-score
22,AGTGTTGA,0.318 E-score
23,AACGACCT,-0.112 E-score
24,AACACGTG,0.371 E-score
25,AGGTTGGG,-0.0791 E-score

row,Sequence,binding signal
1,AGATATAT,-0.0664 E-score
2,CACTTCCG,0.138 E-score
3,AATGACAA,-0.048 E-score
4,CCTTTAAC,0.0243 E-score
5,AGAGTCTC,-0.237 E-score
6,AACTGGCT,-0.173 E-score
7,AGTCTGTG,0.00522 E-score
8,AGCTCACT,-0.224 E-score
9,CGAACTGA,-0.166 E-score
10,ACTGGCTC,-0.0241 E-score
11,AAGGCTCG,-0.289 E-score
12,AGTCTTGC,-0.276 E-score
13,GCAGATCC,0.00671 E-score
14,GTTTTATA,-0.16 E-score
15,CGCTGCGA,-0.176 E-score
16,ATGTATGC,-0.0565 E-score
17,CACGCAGG,0.264 E-score
18,AAGACCCG,0.0979 E-score
19,AATTTATA,-0.126 E-score
20,GACTGCCC,0.018 E-score
21,CTATTTCA,-0.0201 E-score
22,AACCTTGC,-0.0575 E-score
23,AATGGAGC,0.0378 E-score
24,ACCTACAA,-0.0104 E-score
25,CTAGCTGC,-0.217 E-score

row,Sequence,binding signal
1,CATTTTTA,-0.259 E-score
2,AACGACCG,-0.155 E-score
3,AGGGAGAG,0.00599 E-score
4,ATATGCGA,-0.072 E-score
5,GACCGTCC,-0.177 E-score
6,TGGACGAA,-0.175 E-score
7,GAAGCGTA,-0.0186 E-score
8,TCATTCAA,-0.199 E-score
9,TACCAGGA,-0.132 E-score
10,CCGAGATC,0.0702 E-score
11,AGTTTATA,-0.0815 E-score
12,ATCTTCGG,-0.11 E-score
13,TGACGAAA,-0.154 E-score
14,GGATTTAA,-0.0303 E-score
15,GTCCACCA,-0.0755 E-score
16,CGGTCGAG,-0.17 E-score
17,GTGGTTAA,-0.074 E-score
18,TCCATTAA,0.0112 E-score
19,CGCCACAC,0.314 E-score
20,GACGTGAC,-0.0736 E-score
21,CAACGCCG,0.164 E-score
22,GCGTTAGC,0.0223 E-score
23,GGCTTGAC,-0.118 E-score
24,ATAACGAT,-0.213 E-score
25,GACCTCGC,-0.0734 E-score

row,Sequence,binding signal
1,TGAACCCA,0.0794 E-score
2,ATTAGTCC,-0.0448 E-score
3,ACGCAAAA,-0.126 E-score
4,CCTCTGTA,0.105 E-score
5,AAGCGAGC,-0.164 E-score
6,CATTGCGC,-0.296 E-score
7,CGAGCGGA,0.0262 E-score
8,AGAAACCC,0.12 E-score
9,ATGACATA,-0.132 E-score
10,AGTCCATG,0.0133 E-score
11,CCGACGAG,0.0274 E-score
12,GAACAAGC,-0.263 E-score
13,ACTTCACC,-0.0762 E-score
14,CATTACGG,-0.0785 E-score
15,AATATAGC,-0.0964 E-score
16,GGTTATTA,-0.0411 E-score
17,AACGGCTT,-0.248 E-score
18,GCAGTGAA,-0.197 E-score
19,CAAGCCCC,0.00103 E-score
20,ACAATCAA,-0.0826 E-score
21,TCACGGCA,-0.179 E-score
22,AACTGTAC,-0.189 E-score
23,AGGAGTCG,0.0884 E-score
24,TATCACAA,-0.00421 E-score
25,TACCCCGA,0.221 E-score

row,Sequence,binding signal
1,CGCTCGCC,-0.0434 E-score
2,ATAACTTC,-0.133 E-score
3,AGCGAACT,-0.038 E-score
4,ATCGACTC,0.201 E-score
5,AGGTGCGC,-0.0123 E-score
6,AGCCCTCG,-0.22 E-score
7,CCGACTAG,-0.127 E-score
8,CGCATTCA,-0.101 E-score
9,CATCGTAG,0.0737 E-score
10,AAAAGGTC,-0.164 E-score
11,ACAGGCGG,-0.0143 E-score
12,ACTTTGCA,-0.0264 E-score
13,ATCCAATC,-0.147 E-score
14,CGATGTTC,-0.08 E-score
15,GCAGCTAC,-0.16 E-score
16,ATAGGTTA,0.0205 E-score
17,ACTCATAG,0.112 E-score
18,GCACGTAA,-0.000275 E-score
19,ATCTAGAG,-0.139 E-score
20,AACTAAAC,-0.0335 E-score
21,ACCATCTC,0.111 E-score
22,GAAGATCC,-0.0256 E-score
23,GAGATCGA,-0.0684 E-score
24,GAACCTTA,-0.132 E-score
25,TTAATGAA,-0.0752 E-score

row,Sequence,binding signal
1,CCCAGCGA,0.0944 E-score
2,ATTCGGTA,0.0586 E-score
3,CACCACCA,0.329 E-score
4,GACTTCTC,-0.391 E-score
5,GCGATGCA,-0.223 E-score
6,ATATTGGC,-0.0857 E-score
7,ACGTGCAT,-0.0601 E-score
8,ATCTTTTC,-0.196 E-score
9,CAGAGGTA,-0.0745 E-score
10,AACTCATG,-0.098 E-score
11,GGGGATGA,0.133 E-score
12,TCGAACCA,-0.0554 E-score
13,ATGCCAAG,0.162 E-score
14,ACTTCAAT,0.126 E-score
15,CCGTAGAA,-0.0488 E-score
16,AAGGCGCC,-0.104 E-score
17,CCGCCGGC,0.0187 E-score
18,CCGCCCAC,0.0869 E-score
19,AGAGCTTC,-0.131 E-score
20,CGTGATAA,-0.042 E-score
21,ATAAGTGG,-0.0441 E-score
22,AAAGGGAA,-0.134 E-score
23,CACGTTAA,-0.0216 E-score
24,AGCGCATA,-0.0655 E-score
25,CCCGGGTC,0.335 E-score

row,Sequence,binding signal
1,CGTGCTTC,0.00285 E-score
2,GGGGCCCA,-0.177 E-score
3,CAAGCTGC,-0.227 E-score
4,TTCAGCAA,-0.0193 E-score
5,GAACCGCA,-0.131 E-score
6,ACAATTCC,-0.12 E-score
7,CCCTCTCC,-0.0473 E-score
8,GCTGTCCC,-0.189 E-score
9,CCCTGACG,0.152 E-score
10,AGCAGACT,-0.157 E-score
11,CAACGCTA,0.07 E-score
12,GTACGAAA,-0.076 E-score
13,CGGCATCA,-0.128 E-score
14,GGAACGTA,-0.00415 E-score
15,AGGGGACC,0.0592 E-score
16,CGTAGAGA,-0.268 E-score
17,GCGCCCTA,-0.0551 E-score
18,GGTTTGGA,0.0144 E-score
19,CCATAGGG,0.154 E-score
20,CATTAAGA,-0.181 E-score
21,TAAGCTTA,0.0641 E-score
22,AGGACGAG,0.0747 E-score
